# Test results published in publication PMC12136788.
# This is one part of the list.
# T1: UNK ZnF1-6 (called full-length) (human, UniProt Q9C0B0 30-357)
# T1 sequence: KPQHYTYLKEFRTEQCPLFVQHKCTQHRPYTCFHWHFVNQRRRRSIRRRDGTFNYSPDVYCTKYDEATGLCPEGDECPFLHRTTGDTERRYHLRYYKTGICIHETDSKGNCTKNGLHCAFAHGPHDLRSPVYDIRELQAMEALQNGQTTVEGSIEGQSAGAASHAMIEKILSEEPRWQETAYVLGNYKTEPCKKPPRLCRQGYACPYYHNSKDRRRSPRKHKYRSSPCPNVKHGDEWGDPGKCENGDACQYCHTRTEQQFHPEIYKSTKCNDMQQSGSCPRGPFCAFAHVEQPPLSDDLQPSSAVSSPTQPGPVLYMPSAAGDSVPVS
# B1: ENSG00000144554:stop:overlap|stop_codon|ENSG00000144554|stop_codon|NA|stop_codon (ssRNA)
# RNA: GGGAGUUCUACAGUCCGACGAUCACGAAGUAAGUGCUGGAGAAAAGGAGCAAGAUAGUGAUGAGAGUUAUGAUGACUCUGAUUAGACCCCAGAUAAAUUGUUGCCUGCUUCUGUGUCUCUGCCAGCCUGUGAUCAUUUUGUGUCAACAGAGGAUUGAGCAUCA
# B2: ENSG00000107863:be:win_651|CDS|ENSG00000107863|bound_else_gene|NA|bound_elsewhere_windowed (ssRNA)
# RNA: GGGAGUUCUACAGUCCGACGAUCAGUUGAAAUAUCUCCUCCUGACUCAUCAUUGAGCAAACAGCAAACCAGUACACCAGUACUGACACAACCUGGUAGGGCCUAUAGAAUGGAAAUACAAGUGCCUCCAUCACCAACAGAUGUCAACAGAGGAUUGAGCAUCA
# B3: chr2:110123602:110123703:-|3pUTR|ENSG00000144061|unk|total|mutant (ssRNA)
# RNA: GGGAGUUCUACAGUCCGACGAUCAUCCUCCACGAUUACGUGAAUAAAAUGAUGGAACCAAAAAUCACUGUCACUUUACAACUCCGGUUUUACUCUUUUCUUUCUACAGACCAUAUUUUUAAAGAAAUGUUUAUACAAUAAUUUCAACAGAGGAUUGAGCAUCA
# B4: chrX:115010634:115010735:-|CDS|ENSG00000123496|msi1|total|mutant (ssRNA)
# RNA: GGGAGUUCUACAGUCCGACGAUCUGGAUCAUCAGAGAACAAGCCUAUCAGAUCCAGUUAUUUCACUUUUCAGCUUCAAAAUACCGGUGAUGUAAACCAACAAACAACUUCAAAUUCAUUGUUUCCCGUUCCGGCCAUUUACAACAACAGAGGAUUGAGCAUCA
# B5: chr18:68676332:68676434:-|3pUTR|ENSG00000166479|msi1_unk|FALSE|overlapping (ssRNA)
# RNA: GGGAGUUCUACAGUCCGACGAUCAUCAAGAUUAUGAGGUUAAAAAUAAUGUGGUUUUAUAUAGCAUAGUGGUUUUAUUUUGUUAGUUAUUUUUAAAGGAGAAGAAAUGUUACUUUUUAACUUUAUACUCAGUUGCAUUAUCAUCAACAGAGGAUUGAGCAUCA
# B6: ENSG00000198589:be:win_1551|CDS|ENSG00000198589|bound_else_gene|NA|bound_elsewhere_windowed (ssRNA)
# RNA: GGGAGUUCUACAGUCCGACGAUCACAGAUGCUUGCCUGUAAGGGCUUCUUGGUAAUAGGAUAUAGCCUUGAAAAGUCUUCCAAAUCUCAUGUUAGCAGAGCAGUACUUGAACUUUGCCUUGCAUUUUCAAAAUAUCUGAGUAACAACAGAGGAUUGAGCAUCA
# B7: chr5:144162273:144162391:-|CDS|ENSG00000145817|unk|total|mutant (ssRNA)
# RNA: GGGAGUUCUACAGUCCGACGAUCCCCACCGGCUGGCAAAAUCCAGUUUGGCUAUGUAUACGGGAUCAGUGCAAUUGGAUGUCCCGGAAUGUUUUGUUUAUUAAACUUAAUGAGUAUGACAGGUGUUUCAUUUGGUUGUGUGGCCAACAGAGGAUUGAGCAUCA
# B8: chr20:38493008:38493109:+|CDS|ENSG00000170471|unk|FALSE|unique (ssRNA)
# RNA: GGGAGUUCUACAGUCCGACGAUCAUUGGAUGGAGAGACUGUAAAAUAUUGCGUUGAUGUAUAUACAGACUGGAUUAUGGCUUUAGUGUUGCCAAAAGAUUCUAUUCCAUUGCCAGUUAUUAAAGAGCCUAAUCAAUAUGUUCACAACAGAGGAUUGAGCAUCA
# B9: ENSG00000115904:stop:overlap|stop_codon|ENSG00000115904|stop_codon|NA|stop_codon (ssRNA)
# RNA: GGGAGUUCUACAGUCCGACGAUCUUUUGCAACGAAUGGAAGAAUUUAUUGGAACAGUAAGAGAGCUGUACAGCCAUCAGAAUUAGUUGGAAGUGUGUGGACAAAAGAAGACAAAGAAAUUAACUCUCCUAAUCUUCUGAAAAUCAACAGAGGAUUGAGCAUCA
# B10: chr13:75481370:75481471:-|CDS|ENSG00000136111|msi1|FALSE|unique (ssRNA)
# RNA: GGGAGUUCUACAGUCCGACGAUCCUCAGCGCGCCCUUCCUGCGUUGCGUCCCCGCGCCGGGCGCUGGGGCCUCGGGGGGCACUAGUCCGUCGGCCACGCAGCCCAACCCGGCGGUAUUCAUCUUCGAGCACAAGGCGCAGCAUCAACAGAGGAUUGAGCAUCA
# B11: chr12:123586815:123586897:+|5pUTR_CDS|ENSG00000086598|msi1_unk|total|mutant (ssRNA)
# RNA: GGGAGUUCUACAGUCCGACGAUCGAAUCCAGUGGGAAAUACACAUUUGCUGCUCACAUGGAUGGAACAUACAAAUUUUGUUUCCGUAACCGGAUGUCCACCAUGACUCCAAAAACCGUGAUGUUCACCAUUGAUAUUGGGGAGCAACAGAGGAUUGAGCAUCA
# B12: ENSG00000198589:be:win_5601|CDS|ENSG00000198589|bound_else_gene|NA|bound_elsewhere_windowed (ssRNA)
# RNA: GGGAGUUCUACAGUCCGACGAUCGAAGAAUGCAGGCCUUGCUUUUAUCGAACUUGUCAAUGAAGGAAGGUUGCUUAGCCAGACAAUGAAGGAUCAUCUAGUAAGAGUAGCAAAUGAAGCUGAAUUUAUCCUGAGCAGGCAGAGCAACAGAGGAUUGAGCAUCA
# B13: chr6:105100707:105100870:-|3pUTR|ENSG00000112276|msi1|total|mutant (ssRNA)
# RNA: GGGAGUUCUACAGUCCGACGAUCUGAGAUAUAUAUUUUCACAGUCUUUUCCCGAUAUAUUAUUGUUUUAACUUAACAAAUCUCCGCAAUCUCUCAAUGCCUUUUCACUUAUUUUUUUCCAAGUUAUGAUUCUUUUUCCUCACACAACAGAGGAUUGAGCAUCA
# B14: chr6:25850458:25850620:-|CDS|ENSG00000124564|control|control|control (ssRNA)
# RNA: GGGAGUUCUACAGUCCGACGAUCCUCAGAUCUCUACCCAUUUGGUCCAUAUGUUUAGGCUGUUUCAGCCAUCAAUGGUUAGUUAGCACAAUGGUUGUAUACAUACCAACUUACAUCAGCUCUGUGUACCAUGUUAACAUCAGACAACAGAGGAUUGAGCAUCA
# B15: chr1:119801171:119802827:-|three_prime_utr|ENSG00000134193|control|control|control (ssRNA)
# RNA: GGGAGUUCUACAGUCCGACGAUCAAUUCACAGAAAGGAUAAUGGAGUUUCUGUACAAGAUUUACCAGAAAGAGAGUGGUGUGUAGACAUGCCUGGAGCAGACACCUUGGAGCCGCUGACAGAAGGUGAAGCAGUCCAAGAAAACAACAGAGGAUUGAGCAUCA
# B16: chr21:43756582:43756683:+|3pUTR|ENSG00000160209|msi1|FALSE|unique (ssRNA)
# RNA: GGGAGUUCUACAGUCCGACGAUCGCAUUCGAACUUUUGGUUCUUACUUUGCUGCUCGUUUAGUCCCUGGGGAUUUCAGAUCUUAGGCUGUUGUUUCACCGUAUGGGAGGGUUGAUGUGAGCUUGCUUGGAGACACACGGUGCACAACAGAGGAUUGAGCAUCA
# B17: ENSG00000198589:be:win_5751|CDS|ENSG00000198589|bound_else_gene|NA|bound_elsewhere_windowed (ssRNA)
# RNA: GGGAGUUCUACAGUCCGACGAUCUGAGUCACUGUGUGCCCAGUAUUCUGCAGACAAACGAGAAGAUGAGAAGAUGUGUGAUCAUUUGAUAAGAGCAGCAAAAUAUCGUGACCACGUGACAGCAACUCAACUAAUCCAGAAAAUCAACAGAGGAUUGAGCAUCA
# B18: ENSG00000149428:stop:overlap|stop_codon|ENSG00000149428|stop_codon|NA|stop_codon (ssRNA)
# RNA: GGGAGUUCUACAGUCCGACGAUCGCUCCUGCAGUUCUCACCUGAGGAAGUGUUGGGCAUGGUUCUCAAUUAUUCUCGUUCUCUAGCUGAAGAUUUUGCAGAGCAGCCCAUCAAGGAUGCAGUGAUCACCGUGCCAGUCUUCUUCAACAGAGGAUUGAGCAUCA
# B19: chr13:30205178:30205279:-|3pUTR|ENSG00000102781|msi1|FALSE|bound_elsewhere (ssRNA)
# RNA: GGGAGUUCUACAGUCCGACGAUCUUGGCAGUUUCUCUAACGACUCUGUAUAGCUUCUGGCUUCUACUACUGAAACAAGAGUUUAGAUCACUGAUGGAGAGGCAUAGUAAUCUGUUUGUGCUUUGGAAAAAUAUAUAAAAGUUUCAACAGAGGAUUGAGCAUCA
# B20: ENSG00000011677:stop:overlap|stop_codon|ENSG00000011677|stop_codon|NA|stop_codon (ssRNA)
# RNA: GGGAGUUCUACAGUCCGACGAUCUCUAUUGGGCCACAUAUGUCAACCGGGAGUCAGCUAUCAAGGGCAUGAUCCGCAAACAGUAGAUAGUGGUGGCAGUGCAGCAACCAGAGCACUGUAUACCCCGUGAAGCAUCCAGGCACCCAACAGAGGAUUGAGCAUCA
# B21: chr10:113908677:113908778:+|3pUTR|ENSG00000196865|unk|FALSE|bound_elsewhere (ssRNA)
# RNA: GGGAGUUCUACAGUCCGACGAUCAGCUAUGCUCCUUACUUACUUCUUUUAUUAUAAACAAAUUCCUUUGCUUUGGCUGAUACUAGCUGAGUCAUUGAUCAUCAUUGGUACCAUGAUAUUGUAAUCUAUGCUGCUAUUUGGCACCAACAGAGGAUUGAGCAUCA
# B22: chr12:57626096:57626197:-|3pUTR|ENSG00000135454|msi1|total|mutant (ssRNA)
# RNA: GGGAGUUCUACAGUCCGACGAUCGUGUCUCUGCAAUGCUGUGGGCACAAAAGAAGGGGCACCAGAGUCCCUGUGCAAACACCCCGACUCACUUCAUGGAUUCCAAAGCUCUCAGCUUCAUUUUAUCCGUUACGUCCGGUAAGGCAACAGAGGAUUGAGCAUCA
# Target: T1, UNK ZnF1-6 (called full-length)
# Assay: nsRBNS (natural sequence RNA bind-n-seq); RBNS binding buffer (assumed for nsRBNS): 25 mM Tris pH 7.5, 150 mM KCl, 3 mM MgCl2, 0.01% Triton X-100, 500 ug/ml BSA, 20 U/ml SUPERase-In, 4 C; UNK is unkempt and MSI1 is Musashi-1; names of the RNAs are library labels; protein concentration not given here; high values mean tight binding
row,Binder,binding signal [enrichment R]
1,B1,0.553
2,B2,0.54
3,B3,1.11
4,B4,0.399
5,B5,48.4
6,B6,0.506
7,B7,0.596
8,B8,0.5
9,B9,1.76
10,B10,0.5
11,B11,0.4
12,B12,1
13,B13,3.08
14,B14,0.347
15,B15,0.627
16,B16,0.894
17,B17,0.384
18,B18,1.02
19,B19,1.89
20,B20,0.896
21,B21,3.85
22,B22,0.682
